Measurements: PubChem BioAssay AID1508623 (National Center for Advancing Translational Sciences (NCATS), 2021)
In all, about 48,000 compounds went through this assay and about 450 (0.94%) were called active. About 19% were inconclusive and are not listed. Calls come from the whole dose curve; as a rule, active = well fitted inhibition curve with a large enough effect; inconclusive = small, poorly fitted or top-dose-only effect; inactive = no such curve, though single readings can be large or run the other way. The list shows a part of the results.

test: Primary qHTS for Identification of Small Molecule Inhibitors of Huntingtin Promoter Activity; details: HEK293 HTT promoter firefly luciferase reporter (activity 0% = vehicle and -100% = no light), 24 h; series mostly up to 57.5 µM; activity change, negative = inhibition: at the top concentration; note: nearly all actives have a fitted effect of over 50% in size
Procedure, shortened: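 HEK293 cells carrying firefly luciferase reporters were seeded at 2,500 per well in Opti-MEM and cultured for 24 h. They were then treated with compounds at up to 57.5 uM final for 24 h at 37 degrees C before Dual-Glo luminescence readout.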

Activity change, negative = inhibition, inactive:
Cc1cccc(NC(=O)Cn2c(=O)ccc3cc(S(=O)(=O)N4CCCC4)ccc32)c1C -12.7%
CC(=O)c1ccc(NC(=O)C2CCC(CNS(=O)(=O)c3cccs3)CC2)cc1 (stereo not given) 7.23%
COc1cccc(Cc2nc3ccccc3nc2SCC(=O)NCc2ccc(C)cc2)c1 -5.21%
COc1ccc(CCNC(=O)c2ccc3c(c2)nc2n3CCC(C)C2)cc1OC (stereo not given) -13.4%
CCOC(=O)c1noc2nc(C)n(Cc3cccc(C#N)c3)c(=O)c12 -15.6%
O=C(NCc1ccc(F)cc1)c1ccc2c(c1)nnn2C1CCCC1 -7.99%
Cc1c(NC(=O)c2cc(-c3ccc(Cl)cc3)on2)c(=O)n(-c2ccccc2)n1C -27.9%
CCOC(=O)c1[nH]c(C)c(CCC(=O)NCc2ccc(OC)cc2)c1C -11%
Cc1ccccc1-c1nnc(SCC(=O)N(C)C2CCCCC2)o1 53.2%
CCNC(=O)c1ccc(CSc2nc3ccncc3n2Cc2ccc(F)cc2)cc1 -17.1%
CCN(C(=O)Cn1cnc2onc(-c3ccc(F)cc3)c2c1=O)c1cc(C)ccc1C -14.5%
CO[C@]12C[C@@H](COC(=O)c3cncc(Br)c3)CN(C)[C@@H]1Cc1cn(C)c3cccc2c13 -0.501%
CCCCC(=O)O[C@]1(C(=O)CO)[C@@H](C)C[C@H]2[C@@H]3CCC4=CC(=O)C=C[C@]4(C)[C@@]3(F)[C@@H](O)C[C@@]21C -2.85%
Cc1ccc(NC(=O)N2CCN(c3cc(-c4noc(C)n4)ccc3C)CC2)c(C)c1 -15.1%
CC(=O)c1ccc(NC(=O)c2nc(-c3ccc(C)cc3)n3c2CCCCC3)cc1 -29%
COc1ccc(CNc2nc3ccccc3c3nc(-c4ccccc4)nn23)cc1 -13.4%
Cc1ccc(OCC(=O)Nc2nc(-c3ccc(Br)cc3)ns2)cc1C -1.01%
Cc1ccccc1OCC(=O)Nc1ccc2nc(SCc3ccccc3)sc2c1 -0.275%
CC(=O)OCC(=O)[C@@]1(O)CC[C@H]2[C@@H]3CCC4=CC(=O)C=C[C@]4(C)[C@@]3(F)[C@@H](O)C[C@@]21C 4.51%
COc1ccc(-c2ccc(NS(=O)(=O)c3cccc(C)c3)cc2)nn1 -26.2%
COc1ccc(CCNC(=O)C2CCN(c3nc4ccccc4nc3C(F)(F)F)CC2)c(OC)c1 -9.12%
Cc1ccc(C)c(CN2C(=O)C3(c4ccccc42)N(c2ccc(Cl)cc2)C(=O)CS3(=O)=O)c1 (stereo not given) -12.4%
CC(=O)N1c2ccccc2CC1C(=O)NCc1cccc(Cl)c1 (stereo not given) 7.71%
CC(=O)OCC(=O)[C@@]1(O)CC[C@H]2[C@@H]3CCC4=CC(=O)CC[C@]4(C)[C@H]3C(=O)C[C@@]21C 2.76%
Cc1cccc(NC(=O)CSc2nc(-c3ccccc3Cl)nc3c2Cc2c(CO)cnc(C)c2O3)c1C -12.6%
